# According to article PMC4336329 (PLoS ONE, 2015):
# Out of some 310,000 compounds screened, about 14,000 (4.5%) showed an effect of 50% or more. The effect is printed as a negative number. This is one part of the list. Where a SMILES comes first, the peptide text is derived from it. The star is where a group is joined. Cbz = O=C(OCc1ccccc1)*
# Target: human ether-à-go-go-related gene (hERG) potassium channel (human, UniProt Q12809)
# Assay: primary screen, population patch clamp on CHO cells stably expressing hERG
# 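Also: peak tail current of the secondary pulse compared with the same well before compound.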
# human ether-à-go-go-related gene (hERG) potassium channel, sequence (Q12809 whole entry, looked up): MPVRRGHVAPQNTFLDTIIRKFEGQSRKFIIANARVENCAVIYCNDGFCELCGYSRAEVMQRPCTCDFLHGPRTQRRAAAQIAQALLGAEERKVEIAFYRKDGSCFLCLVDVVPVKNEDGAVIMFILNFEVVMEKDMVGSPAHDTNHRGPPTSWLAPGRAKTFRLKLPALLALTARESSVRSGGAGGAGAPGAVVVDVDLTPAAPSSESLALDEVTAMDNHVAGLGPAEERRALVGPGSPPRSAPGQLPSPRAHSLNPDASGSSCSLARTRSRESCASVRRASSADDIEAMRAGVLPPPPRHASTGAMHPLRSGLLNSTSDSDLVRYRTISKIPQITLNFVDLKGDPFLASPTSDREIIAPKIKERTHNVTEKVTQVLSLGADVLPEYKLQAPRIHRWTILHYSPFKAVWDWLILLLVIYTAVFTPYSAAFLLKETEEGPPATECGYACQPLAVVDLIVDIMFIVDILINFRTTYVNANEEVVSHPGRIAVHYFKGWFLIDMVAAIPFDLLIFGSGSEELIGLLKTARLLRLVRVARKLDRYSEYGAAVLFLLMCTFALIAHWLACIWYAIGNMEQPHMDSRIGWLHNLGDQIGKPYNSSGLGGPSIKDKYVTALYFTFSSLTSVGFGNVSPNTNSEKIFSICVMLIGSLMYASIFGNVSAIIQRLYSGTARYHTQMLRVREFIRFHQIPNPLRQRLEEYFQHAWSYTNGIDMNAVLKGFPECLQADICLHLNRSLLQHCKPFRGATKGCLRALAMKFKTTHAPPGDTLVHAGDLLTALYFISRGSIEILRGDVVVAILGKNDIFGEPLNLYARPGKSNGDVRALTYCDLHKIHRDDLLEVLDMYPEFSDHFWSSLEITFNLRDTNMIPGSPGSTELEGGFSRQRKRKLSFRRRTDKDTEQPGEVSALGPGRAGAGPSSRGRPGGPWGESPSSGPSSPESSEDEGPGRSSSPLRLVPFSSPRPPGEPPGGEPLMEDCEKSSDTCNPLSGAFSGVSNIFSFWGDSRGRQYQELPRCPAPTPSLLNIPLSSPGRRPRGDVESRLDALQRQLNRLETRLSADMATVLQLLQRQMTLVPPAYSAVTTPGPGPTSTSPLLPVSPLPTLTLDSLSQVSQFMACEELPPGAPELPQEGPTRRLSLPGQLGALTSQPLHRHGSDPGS
row,SMILES,"hERG current change (%, negative = inhibition) at 10uM [%]"
1,S=C(NCCc1ccccc1)N/N=C/c1ccc(Cl)cc1,13.6
2,COCCCNC(=O)c1ccc(CNS(=O)(=O)c2ccc(NC(C)=O)cc2)cc1,11.8
3,Cc1ccc(-c2csc(N(CCCN(C)C)C(=O)c3ccco3)n2)cc1.Cl,-74.8
4,Nc1ncc(-c2ccccc2)c(-c2ccc(O)cc2O)n1,-12.4
5,CCN(C(=O)/C=C/c1ccc(OC)cc1)C1CCCCC1,-0.943
6,Oc1c(Br)cc(C=Nc2ccc3nc(-c4ccccc4)[nH]c3c2)c(O)c1Br,18
7,O=C(COC(=O)c1nc(Cl)ccc1Cl)NC(=O)c1ccccc1,-4.46
8,O=C1c2ccccc2C2(c3ccccc3)NCCCN12 (stereo not shown),19
9,CC(NC(=O)CN(c1ccc(F)cc1)S(C)(=O)=O)c1ccccc1 (stereo not shown),14
10,Fc1ccc(OCc2nc(-c3cccs3)no2)cc1,-9.58
11,COC(=O)C1=C(NC(=O)c2ccccc2C)CCS1,33.7
12,Cc1nc(-c2ccc(S(=O)(=O)N3CCN(C(c4ccccc4)c4ccccc4)CC3)s2)cs1,1.22
13,COc1ccccc1-n1cnnc1SCC(=O)N1CC(=O)Nc2ccccc21,-5.42
14,CCN(CC(=O)NCc1ccc(F)cc1)C(=O)C(C)Oc1cccc(Cl)c1 (stereo not shown),-54.4
15,CCOc1ccc(NC(=S)N(CCN2CCOCC2)Cc2cc3cc4c(cc3[nH]c2=O)OCO4)cc1,-34.6
16,O=C1CCCN1c1ccc(S(=O)(=O)O)cc1.c1nc[nH]n1,15
17,C#CCN(C(=O)c1cc(COc2ccc(C)c(C)c2)on1)C1CCCCC1,-7.7
18,CCOC(=O)c1[nH]c2ccccc2c1NC(=O)C1CCCC1,3.28
19,O=C(O)C1CCCCC1C(=O)Nc1ccc(F)cc1F (stereo not shown),-10.4
20,O=C(CCc1ccccc1Cl)NC1CCCN(c2ccc(C(F)(F)F)cn2)C1 (stereo not shown),13.4
21,O=C(CCC1COc2ccccc2O1)Nc1ncccc1O (stereo not shown),3.51
22,O=C(CN1C(=O)NC(Cc2c[nH]c3ccccc23)C1=O)Nc1cccc(S(=O)(=O)N2CCCCCC2)c1 (stereo not shown),1.65

row,SMILES,"hERG current change (%, negative = inhibition) at 10uM [%]"
1,N#CC1=C(Nc2ccccc2Cl)SC(c2ccccc2O)NC1=O (stereo not shown),22.1
2,COc1ccc(CC(=O)Nc2ccccc2NC(=O)c2ccco2)cc1OC,5.87
3,CCC(Oc1ccc2c(c1)C(=O)CC(C)(C)O2)C(=O)NCCN1CCCCCC1.O=C(O)C(=O)O (stereo not shown),-41.6
4,Cc1nccn1CCCNCc1c(C(=O)N2CCCCCCC2)nc2ccc(Cl)cn12,-24.5
5,COC(=O)c1ccc(C)c(NC(=O)Cc2coc3cc(OC)ccc23)c1,3.98
6,O=C(/C=C/c1cccc(C(F)(F)F)c1)N1CCN(c2ccccn2)CC1,1.31
7,COc1ccc(C(C)=O)cc1CN1C(=O)NC(CC(C)C)C1=O (stereo not shown),0.847
8,COC(=O)c1cccc(N2CCCC2=O)c1,15.9
9,CCOC(=O)C1(CCc2ccccc2)CCN(C(=O)Cc2nonc2C)CC1,-21.4
10,CSCCCNC(=S)Nc1cccc(S(=O)(=O)NC2=NCCC2)c1,32.8
11,O=C(c1ccc2c(c1)OCO2)N1CCC2(CC1)Oc1ccc(F)cc1C(=O)C21CC(c2ccc(Cl)cc2)=NO1 (stereo not shown),12.2
12,Cc1cccc(OCC(=O)NCc2nnc3ccc(C(F)(F)F)cn23)c1C,-4.38
13,COc1ccc(C)cc1Nc1nc(N)c2cc(OC)c(OC)cc2n1,-38.8
14,CCOc1ccc2oc(C(=O)NC3CCN(Cc4ccccc4)CC3)c(C)c2c1.Cl,-15.1
15,CC(=O)N1CCc2cc(C(=O)CN3CCN(c4ccccc4F)CC3)ccc21,-3.15
16,O=C(CSc1nc2ccccc2c(=O)n1-c1ccc(F)cc1F)Nc1ccc(N2CCOCC2)cc1,-31.7
17,COc1ccc(C(CCN)c2ccc3c(c2)OCO3)cc1 (stereo not shown),1.93
18,CCN1C(=NCCCCO)N[C@@H](c2cccc(F)c2)C(C(=O)OC)=C1C,6.82
19,Cc1nc2ccc(-c3nc4ccccc4[nH]3)cc2[nH]1,7.78
20,O=C(O)c1ccccc1C(=O)Nc1ccc(Br)c(C(F)(F)F)c1,-70.6
21,CN1CCN(CC#CCC(O)(c2ccccc2)c2ccccc2)CC1.Cl,13.2
22,CC(CC(=O)Nc1ccc(F)cc1F)S(=O)(=O)c1ccc2c(c1)NC(=O)CO2 (stereo not shown),-9

row,SMILES,"hERG current change (%, negative = inhibition) at 10uM [%]"
1,Cc1ccccc1SC1CCN(Cc2nc(C3CC3)no2)CC1,-14.2
2,CC(C)C(NC(=O)C(Cc1ccccc1)NC(=O)OCc1ccccc1)C(=O)O (stereo not drawn) (Cbz-Phe-Val-OH; configuration not given here),20.1
3,Cc1nn(C(C)C(=O)NCc2ccccc2F)c(=O)c2nn(-c3ccccc3)c(C)c12 (stereo not shown),13.8
4,CCOC(=O)Cc1csc(NC(=O)c2cnc3scc(C)n3c2=O)n1,10.4
5,C=C1C[C@]23C[C@@]1(O)CC[C@H]2[C@@]12C=C[C@H](O)[C@@](C)(C(=O)O1)[C@H]2[C@@H]3C(=O)O,9.21
6,Cc1cc(=O)oc2ccc(OC(=O)c3cccc(S(=O)(=O)N4CCOCC4)c3)cc12,-70.5
7,Cn1c(N2CCOCC2)cc(=O)n(C)c1=O,-18.2
8,O=C(NCC(c1cccnc1)N1CCN(c2ccc(F)cc2)CC1)c1ccc2c(c1)OCO2 (stereo not shown),-65.3
9,Cc1ccc(S(=O)(=O)N2CCC(C(=O)OC(C)C(=O)N(C)c3ccccc3)CC2)cc1C (stereo not shown),-25.7
10,CCOc1ccc(/C=N/NC(=S)NC2CC3C=CC2C3)cc1 (stereo not shown),19.5
11,C(=N\Nc1nc(-c2ccccc2)cs1)/c1cccs1,18.5
12,COc1cc(CNCCN2CCOCC2)ccc1OCc1ccc(Cl)cc1Cl.Cl,-69.7
13,O=C(c1cccs1)N1CCC(c2nc3c(nnn3Cc3c(Cl)cccc3Cl)c(=O)[nH]2)CC1,-3.47
14,CCN1CCN(C(=O)c2cn(CCOC)c(=O)c3c2c2ccccc2n3C)CC1,12
15,COc1ccccc1NC(=O)c1ccc(NC(=O)CN2CCCC2)cc1,-34.2
16,O=C(NCCC1=CCCCC1)C(=O)NCC1OCCCN1S(=O)(=O)c1cc(F)ccc1F (stereo not shown),-10.8
17,Cc1ccc(F)cc1NC(=O)CSCc1nc2sc(C)c(C)c2c(=O)[nH]1,2.49
18,C/C(=N\NC(=O)CNc1cccc(C(F)(F)F)c1)c1cccc(Br)c1,0.604
19,Cn1cccc1CC(=O)NNC(=S)Nc1ccccc1Cl,11.6
20,CCc1cc2c3c(c(=O)oc2cc1OC(C)C(=O)O)CCCC3 (stereo not shown),12.6
21,COC(=O)c1cc(S(=O)(=O)NCc2ccccc2)cn1C,8.07
22,COC(=O)c1ccc(NC(=O)c2ccc3c(c2)C(=O)N(Cc2cccnc2)C3=O)cc1,-23.2

row,SMILES,"hERG current change (%, negative = inhibition) at 10uM [%]"
1,Cc1ccc([N+](=O)[O-])cc1NC(=O)CSc1nnc(C)n1CC1CCCO1 (stereo not shown),-14.6
2,COC(=O)C1(C(O)C(=O)c2ccc(C)cc2C)CCCCC1 (stereo not shown),2.87
3,O=C(N[C@@H](Cc1ccccc1)c1nc2ccccc2[nH]1)c1cc([N+](=O)[O-])ccc1Cl,-28
4,O=S(=O)(c1ccccc1)N1N=C(c2ccccc2)CC1c1ccccc1 (stereo not shown),-6.01
5,CS(=O)c1ccc(-n2c(=O)n(Cc3ccccc3)c(=O)c3[nH]cnc32)cc1 (stereo not shown),2.47
6,Cc1nc2ccccc2c2oc(C(=O)N3CCN(C4CCCCC4)CC3)cc12,-64.7
7,CCCc1cc(C(=O)N2CCCC(N3CCN(c4ccc(F)cc4)CC3)C2)no1 (stereo not shown),-73
8,O=C(Nc1cc(Cl)ccc1-n1cncn1)c1cccs1,-24.9
9,N/C(=N\OC(=O)c1cc(-c2ccccc2)nc2ccccc12)c1cccnc1,-8.32
10,CCSc1nnc(NC(=O)C2CCN(S(=O)(=O)c3c(C)c(C)cc(C)c3C)CC2)s1,7.7
11,COC(=O)c1cc(NC(=O)c2cccc(C(F)(F)F)c2)c(=O)oc1C/C=N/OCc1cccc(Cl)c1Cl,1.53
12,O=C(NCCc1ccccc1)C(=O)NCCC1CCCCN1S(=O)(=O)c1ccccc1 (stereo not shown),-19.5
13,O=C(CCNC(=O)c1ccccc1Cl)Nc1nc(-c2ccc3ccccc3c2)cs1,-26.4
14,COc1ccc(CCNC(=O)CC(NC(=O)c2ccccc2Cl)c2ccccc2)cc1 (stereo not shown),7.07
15,Cc1cccc(N2CCC(N=CN(C)C)=N2)c1,3.62
16,CCOC(=O)CC1=CC(=O)Nc2ccccc2N1,-4.25
17,Cn1ccc(NC(=O)CCl)n1,7.72
18,COc1ccc(CC(=O)NC(=S)Nc2cccc(CO)c2)cc1,-5.99
19,Cc1ccc(N(C(=O)C(F)(F)F)C(C(=O)NC2CCCCC2)c2cccs2)cc1 (stereo not shown),3.86
